Laboratory results from the BET-seq Pho4 binding data (Le et al. 2018).
Some of the results follow. These are noisy estimates, calculated here from bound and input reads.

molecular target: T1, Pho4 (S. cerevisiae) (UniProt P07270); experiment: relative binding free energy (BET-seq); higher = weaker binding; conditions: reference: library average
T1 sequence: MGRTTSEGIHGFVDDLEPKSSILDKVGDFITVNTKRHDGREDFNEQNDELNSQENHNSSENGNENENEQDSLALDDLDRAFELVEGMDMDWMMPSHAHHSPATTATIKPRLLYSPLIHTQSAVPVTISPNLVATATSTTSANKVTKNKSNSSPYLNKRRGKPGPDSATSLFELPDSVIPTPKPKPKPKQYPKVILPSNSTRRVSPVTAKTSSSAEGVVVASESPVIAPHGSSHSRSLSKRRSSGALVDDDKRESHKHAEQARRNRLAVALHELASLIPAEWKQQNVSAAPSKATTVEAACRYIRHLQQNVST

Sequence	relative binding free energy [kcal/mol]
AAAGGCACGTGGTCAT	-0.01
TTTATCACGTGCGGGG	0.13
TTATTCACGTGACTGT	0.3
GAAGGCACGTGGCGTG	-0.19
TTGGGCACGTGTCCGG	-0.16
GGTGGCACGTGCAATG	0.04
ACGAGCACGTGGTGTT	-0.29
TGGTACACGTGTAGAG	0.16
TAATACACGTGGGTAT	-0.07
GGTGCCACGTGTGGGC	0.01
AAGGACACGTGTTGGG	0.05
TTCGACACGTGTGTGT	0.07
GTGTTCACGTGGAGAG	0.22
GCTTTCACGTGGTGGC	0.26
TCCGTCACGTGGTGGA	0.15
GTGCGCACGTGTGGCT	0.02
AAGTGCACGTGTGATA	-0.02
TACAACACGTGGTTGG	0.08
AGTGACACGTGTGACT	0.18
GATGTCACGTGCGTAT	0.07
TGTTCCACGTGTGTCT	0.1
CGAAGCACGTGGGTGA	-0.17
GTGTACACGTGAGATT	0.4
GTTCTCACGTGCGGGC	0.38
AATAACACGTGCGGGG	-0.02
AGCGTCACGTGTAGGG	0.01

Sequence	relative binding free energy [kcal/mol]
TTGGACACGTGCGGAT	0.01
AAGATCACGTGTGTTT	0.24
GCTGCCACGTGGGAGG	-0.22
CGGTTCACGTGGGGTA	0.08
GTATTCACGTGGTAGA	0.23
ATGGTCACGTGGATTC	0.17
AGTACCACGTGTGGTT	0.01
GTGGGCACGTGAGGGA	0.28
GCCATCACGTGGTGGT	0.08
ATCGTCACGTGGTTGG	0.11
GTTGGCACGTGAGGTA	0.13
TGTGTCACGTGCAGTA	0.09
GGGTTCACGTGTCCGG	0.3
GTCGTCACGTGATTAG	0.39
GGTTACACGTGTGCTA	0.11
TATTGCACGTGGCAAG	-0.14
TAATGCACGTGCGTAG	0.02
TTGGGCACGTGGCACG	-0.25
TTCTGCACGTGTAGTA	0.1
TGGTGCACGTGAAATT	0.46
TCGGGCACGTGCGTTT	-0.01
AAGCTCACGTGTGTAG	0.27
AGGTACACGTGGTCAT	0.01
GTACACACGTGTGTGG	0.04
TGGCACACGTGTTGAG	0.08
TTATTCACGTGGTGAG	0.3

Sequence	relative binding free energy [kcal/mol]
TCTAACACGTGAGGTT	0.22
GGTGTCACGTGTAAAT	0.28
GGGGGCACGTGTTACG	-0.17
CATGACACGTGGAGGT	0.16
ACATGCACGTGGTTAT	-0.04
GGGATCACGTGTATGA	0.2
TGCGTCACGTGGAGGG	-0.02
TGGGTCACGTGTAAGA	0.24
GTTAGCACGTGTCGGT	0.09
TTTGTCACGTGTAGCT	0.19
ATGGTCACGTGTTGAA	-0.01
CATTGCACGTGTGTAG	0.05
ATGGTCACGTGAGTAG	0.33
GTGCTCACGTGGGGAT	0.16
TGTCGCACGTGTTTAT	-0.1
TTAGACACGTGAGGGA	0.26
ATGCACACGTGATGTG	0.16
TGTTACACGTGGCTTT	-0.02
AGTGCCACGTGCGGTG	-0.22
CGTGGCACGTGAGAGT	0.21
GAGTGCACGTGAGCTG	0.18
CGGGACACGTGGTTGG	-0.11
TGTATCACGTGCGGAT	-0.01
TGCGTCACGTGTGCGT	-0.01
CTAAGCACGTGTGTGG	-0.16
GGTACCACGTGGGAGT	-0.19

Sequence	relative binding free energy [kcal/mol]
TTTGCCACGTGGGGTA	-0.26
TTATACACGTGTTATG	0.07
TGGGTCACGTGGTACA	-0.08
AGGTGCACGTGCGGAA	-0.12
CGGTGCACGTGCGGGA	-0.15
TTTTTCACGTGGGTCC	0.28
GGGCGCACGTGTAGCG	0.03
TCGAACACGTGTGTGT	-0.05
TAGGACACGTGATGGG	0.19
CTGGGCACGTGTGTCT	-0.11
TGATGCACGTGATGTT	0.18
TTATGCACGTGAAATA	0.17
TGAGTCACGTGGCTGA	0.03
AGGGCCACGTGGACGG	-0.11
AGAGTCACGTGATTAG	0.21
AATAACACGTGAGTGT	0.27
AAGTGCACGTGAGCTG	0.24
GAGTGCACGTGTTTCT	0.04
TAAGACACGTGGTGTT	-0.03
AGACGCACGTGGCTGT	-0.01
ATGGGCACGTGTGGCG	0.03
GCTGTCACGTGTTGCG	0.17
ATCTCCACGTGTGTTT	0.15
GGGGCCACGTGGTACA	0.03
TAGGTCACGTGGTCGA	-0.06
AGTTCCACGTGGGATT	-0.08

Sequence	relative binding free energy [kcal/mol]
TAGGTCACGTGACGCT	0.18
GTGAACACGTGGATGG	0.05
GTGGGCACGTGGGTAG	-0.21
GATTTCACGTGAGATT	0.54
TATCACACGTGTGGCT	0.33
AAGGGCACGTGGACTG	-0.15
GGGTTCACGTGACGTG	0.39
GAAGCCACGTGAGGGT	0.18
TCGGTCACGTGTAGCA	0.15
CTTGTCACGTGTTATC	0.1
GTAATCACGTGAAGTG	0.23
TGGGTCACGTGTGGGC	0.21
AATGACACGTGTAGAT	0.27
AGTAGCACGTGGCGCG	-0.11
TTAGTCACGTGTTGTA	0.13
CTAGGCACGTGATGTG	0.07
TGTCGCACGTGCGGTT	0
AAATTCACGTGGAGGG	0.18
TGGCGCACGTGGGCGT	-0.2
TGTGTCACGTGGTATC	-0.07
TTAAACACGTGTTTTC	0.03
CTTATCACGTGCGTTT	0.21
ATAGTCACGTGAGTTT	0.41
ATAAACACGTGGTGTT	-0.07
ATATTCACGTGGGATA	0.06
GATGGCACGTGAAATG	0.15

Sequence	relative binding free energy [kcal/mol]
AGTAGCACGTGCGCGG	-0.22
ATATACACGTGTTGGC	0.09
AAAGTCACGTGCTGGA	0.22
TAGTACACGTGGGTTG	-0.08
CATTTCACGTGGTGAT	0
GAGAACACGTGAGGGT	0.19
TTAGTCACGTGTGTAA	0.25
GGTGGCACGTGATATT	0.13
TGGTGCACGTGTCTGA	-0.1
GTGGGCACGTGGCTTT	-0.11
TGATGCACGTGTGCCG	-0.04
GGTCGCACGTGGGGCC	-0.03
ATGAGCACGTGAGAGG	0.19
GGGTTCACGTGTAGGA	0.35
GTTTCCACGTGTTTGA	0.08
GGGTACACGTGGAATA	0.3
TTGTACACGTGTGATG	0.06
TCTGGCACGTGATTTG	0
TGAGGCACGTGGGGGA	-0.22
CAAGTCACGTGAGTGT	0.21
GTTGTCACGTGTCTCG	0.25
GCAGTCACGTGGGTGA	-0.13
GTTTGCACGTGTTGCG	0.11
CATATCACGTGGGTAG	-0.06
TTTTCCACGTGTTTTA	0.12
ATGGTCACGTGCGCGT	-0.05

Sequence	relative binding free energy [kcal/mol]
TGAAGCACGTGTTCGT	-0.18
GAGGACACGTGGATGT	0.17
TCGGGCACGTGGTGGA	0.04
GATTTCACGTGGGTCA	0.23
TGCTTCACGTGTTTGG	0.3
TTGACCACGTGATTTG	0.11
AGGAGCACGTGGGGAA	-0.17
TGTATCACGTGGAAGC	0.28
GAATGCACGTGGGAGT	0.02
AATAGCACGTGTAATG	0.06
GGGATCACGTGGGGGT	0.02
AGGAGCACGTGTTGTC	-0.12
TAGCGCACGTGGTTGG	-0.2
ACTCGCACGTGATGTG	0.13
GCTGGCACGTGACGGG	-0.11
ATCTGCACGTGGGTGA	-0.05
GTCGTCACGTGTCGGG	0.22
GTTTCCACGTGGGTAG	0.09
AGTCGCACGTGAGTGC	0.27
GTTTTCACGTGGTTAT	0.35
GTATGCACGTGGCTTT	-0.06
GTTGACACGTGGAGTC	0.08
AGTAGCACGTGGAGCG	-0.09
ATGATCACGTGGGTAG	-0.02
TAAAGCACGTGAGAGG	0.04
TTAGTCACGTGTTATA	-0.07

Sequence	relative binding free energy [kcal/mol]
TGCAACACGTGGTGGT	-0.13
TTATTCACGTGACGGG	0.24
AGTGGCACGTGTCAGA	0.01
GAAATCACGTGCGGGG	0.17
ATCTGCACGTGCGTTG	-0.04
GTGGGCACGTGTCCTG	-0.06
ATATACACGTGTGGCG	0.05
AGTATCACGTGTGTTG	0.22
TGGAGCACGTGGCAGG	-0.18
GATTTCACGTGGGGTC	0.31
TTCTGCACGTGAGTAT	0.21
TTTCTCACGTGGTGAT	0.18
TATGCCACGTGCGGTT	-0.11
AATTCCACGTGGAGTG	0.21
GAGGACACGTGGTTTT	0.1
TTGTTCACGTGTGAGG	0.29
ATTTGCACGTGCGGTT	-0.02
TTCGTCACGTGGAAAT	0.23
TGGATCACGTGAGGTT	0.34
GGTTGCACGTGATGTA	0.06
TCTGGCACGTGGTGCG	-0.25
CATATCACGTGTAGTG	0.16
AAGGGCACGTGTATAG	-0.01
CTGGGCACGTGTAGTC	0.04
AGCGTCACGTGGGTAA	-0.14
ATCGGCACGTGTTCGG	-0.04

Sequence	relative binding free energy [kcal/mol]
TGAGTCACGTGTGTGG	0.17
TAGGTCACGTGTGGGA	0.15
GATTTCACGTGTGCGG	0.5
ATTGACACGTGTGAAG	0.05
TGGGGCACGTGCTCAT	-0.2
GTTCGCACGTGTTAGG	-0.01
GTAATCACGTGGTGCG	-0.01
CGGGTCACGTGTGGCA	0.28
TGGTGCACGTGGGGAA	-0.14
TTCGGCACGTGCTTGG	-0.05
TCTGTCACGTGTGAGA	0.16
GATTGCACGTGTATAG	0.11
CACTGCACGTGGTGGG	-0.16
ATTGACACGTGTGGGC	0
CGGTCCACGTGTTTTT	0.2
CTCGGCACGTGAATGT	0.17
CGTATCACGTGGATTG	0.14
CATGGCACGTGTGCGT	-0.14
GGTTGCACGTGAATAA	0.28
AGTAACACGTGTTTTT	-0.04
GGAAGCACGTGTTATT	-0.06
CAGTACACGTGTATGG	0.06
